Publication PMC4094278, “The Dictyostelium discoideum RACK1 orthologue has roles in growth and development” (Cell Communication and Signaling : CCS, 2014)
Results are given in words; binding and its absence hold for the method and conditions named. In cells and extracts the contact can be indirect. Some binding calls cover weakened binding; strength is not graded here. For some of these results: Tags and fused reporters may be left off the sequences shown.

Columns and labels:
[1] = molecular target: T1, GST-Gα2 (D. discoideum) (UniProt P16051); experiment: pull-down; GST or GST-fusion proteins on beads incubated 3 h with AX2 lysate (50 mM Tris/HCl pH 7.4, 150 mM NaCl, 0.5% NP40); endogenous DdRACK1 detected by western blot; only the target purified
T1 sequence: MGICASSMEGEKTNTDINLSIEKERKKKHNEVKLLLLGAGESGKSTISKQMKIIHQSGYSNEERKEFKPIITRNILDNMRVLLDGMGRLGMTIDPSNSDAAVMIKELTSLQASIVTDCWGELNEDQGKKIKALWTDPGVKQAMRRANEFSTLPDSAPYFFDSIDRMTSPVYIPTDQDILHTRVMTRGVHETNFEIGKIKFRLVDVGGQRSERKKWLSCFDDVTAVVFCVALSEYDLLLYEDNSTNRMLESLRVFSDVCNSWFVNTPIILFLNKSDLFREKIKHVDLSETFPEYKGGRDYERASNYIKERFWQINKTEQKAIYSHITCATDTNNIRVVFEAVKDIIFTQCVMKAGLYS

[2] = molecular target: T2, GST-Gα4 (D. discoideum) (UniProt P34042); experiment: as above
T2 sequence: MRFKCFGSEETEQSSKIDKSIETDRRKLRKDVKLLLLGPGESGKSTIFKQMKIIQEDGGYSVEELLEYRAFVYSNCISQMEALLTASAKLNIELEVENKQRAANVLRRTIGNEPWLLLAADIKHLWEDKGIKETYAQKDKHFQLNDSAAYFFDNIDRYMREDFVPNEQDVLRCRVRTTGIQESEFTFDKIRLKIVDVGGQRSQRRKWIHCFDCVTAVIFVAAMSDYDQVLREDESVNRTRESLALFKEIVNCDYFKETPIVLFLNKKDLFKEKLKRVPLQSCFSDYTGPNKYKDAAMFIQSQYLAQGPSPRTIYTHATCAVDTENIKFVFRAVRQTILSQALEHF

[3] = molecular target: T3, GST-Gα8 (D. discoideum) (UniProt P34046); experiment: as above
T3 sequence: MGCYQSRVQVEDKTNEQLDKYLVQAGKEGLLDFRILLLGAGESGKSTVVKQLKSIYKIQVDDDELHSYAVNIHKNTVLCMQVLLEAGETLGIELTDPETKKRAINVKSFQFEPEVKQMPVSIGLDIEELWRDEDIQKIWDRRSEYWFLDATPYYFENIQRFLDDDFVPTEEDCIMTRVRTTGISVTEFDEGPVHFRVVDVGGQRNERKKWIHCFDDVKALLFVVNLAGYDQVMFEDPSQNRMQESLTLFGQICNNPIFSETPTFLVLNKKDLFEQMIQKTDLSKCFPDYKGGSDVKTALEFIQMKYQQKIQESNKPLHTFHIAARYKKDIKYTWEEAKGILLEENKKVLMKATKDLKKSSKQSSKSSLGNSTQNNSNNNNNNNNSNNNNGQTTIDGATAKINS

[4] = molecular target: T4, GST-Gγ (D. discoideum) (UniProt Q95ZG8); experiment: as above
T4 sequence: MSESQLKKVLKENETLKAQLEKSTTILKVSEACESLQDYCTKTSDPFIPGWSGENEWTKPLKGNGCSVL

[5] = molecular target: T5, GFP-DdRACK1 (D. discoideum) (UniProt P46800); experiment: co-IP; GFP-, YFP- or RFP-tagged protein from AX2 lysates bound to GFP-trap or RFP-trap beads; lysis in 10 mM Tris/HCl pH 7.4, 150 mM NaCl, 0.5% NP40; 3 h; endogenous DdRACK1 detected by western blot with polyclonal antibodies
T5 sequence: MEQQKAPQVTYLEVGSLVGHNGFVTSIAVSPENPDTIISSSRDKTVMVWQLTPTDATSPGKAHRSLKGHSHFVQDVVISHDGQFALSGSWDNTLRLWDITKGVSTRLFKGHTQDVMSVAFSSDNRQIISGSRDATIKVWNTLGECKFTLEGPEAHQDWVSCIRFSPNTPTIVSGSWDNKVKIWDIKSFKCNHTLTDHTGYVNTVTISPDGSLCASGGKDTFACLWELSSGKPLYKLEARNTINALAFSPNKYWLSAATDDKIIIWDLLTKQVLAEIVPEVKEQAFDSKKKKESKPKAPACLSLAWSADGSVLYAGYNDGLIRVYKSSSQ

[6] = molecular target: T6, GFP-Gβ (D. discoideum) (UniProt P36408); experiment: as above
T6 sequence: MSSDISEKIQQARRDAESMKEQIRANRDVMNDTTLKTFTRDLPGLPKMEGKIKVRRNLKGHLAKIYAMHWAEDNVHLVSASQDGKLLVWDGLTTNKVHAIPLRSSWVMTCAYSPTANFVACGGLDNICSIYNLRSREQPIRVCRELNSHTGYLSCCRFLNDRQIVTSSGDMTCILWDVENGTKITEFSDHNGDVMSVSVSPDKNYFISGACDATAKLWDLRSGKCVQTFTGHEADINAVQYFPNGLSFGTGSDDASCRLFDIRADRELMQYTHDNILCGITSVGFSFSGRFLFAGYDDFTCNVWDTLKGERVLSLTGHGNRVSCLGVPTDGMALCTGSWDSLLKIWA

[7] = molecular target: T7, Gα2-RFP (D. discoideum) (UniProt P16051); experiment: as above
T7 sequence: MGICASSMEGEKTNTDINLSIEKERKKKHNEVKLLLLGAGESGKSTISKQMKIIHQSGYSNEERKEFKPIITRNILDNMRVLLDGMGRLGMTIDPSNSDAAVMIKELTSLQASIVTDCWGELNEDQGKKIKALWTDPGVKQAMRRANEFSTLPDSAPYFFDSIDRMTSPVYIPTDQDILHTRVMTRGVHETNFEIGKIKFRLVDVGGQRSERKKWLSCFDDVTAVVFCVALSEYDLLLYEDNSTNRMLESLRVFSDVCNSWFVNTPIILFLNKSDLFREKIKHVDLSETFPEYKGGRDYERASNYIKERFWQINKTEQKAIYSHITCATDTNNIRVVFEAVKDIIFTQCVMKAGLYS

[8] = molecular target: T8, Gα4-RFP (D. discoideum) (UniProt P34042); experiment: as above
T8 sequence: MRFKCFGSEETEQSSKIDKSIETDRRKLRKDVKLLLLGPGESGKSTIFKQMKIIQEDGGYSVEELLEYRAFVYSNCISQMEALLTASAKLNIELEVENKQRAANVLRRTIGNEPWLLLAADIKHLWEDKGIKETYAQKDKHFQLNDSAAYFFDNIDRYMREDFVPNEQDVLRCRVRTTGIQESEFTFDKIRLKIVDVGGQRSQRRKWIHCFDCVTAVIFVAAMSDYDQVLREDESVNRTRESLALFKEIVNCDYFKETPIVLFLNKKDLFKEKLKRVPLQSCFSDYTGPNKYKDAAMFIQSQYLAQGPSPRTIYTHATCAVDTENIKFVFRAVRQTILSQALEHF

[9] = molecular target: T9, Gα8-RFP (D. discoideum) (UniProt P34046); experiment: as above
T9 sequence: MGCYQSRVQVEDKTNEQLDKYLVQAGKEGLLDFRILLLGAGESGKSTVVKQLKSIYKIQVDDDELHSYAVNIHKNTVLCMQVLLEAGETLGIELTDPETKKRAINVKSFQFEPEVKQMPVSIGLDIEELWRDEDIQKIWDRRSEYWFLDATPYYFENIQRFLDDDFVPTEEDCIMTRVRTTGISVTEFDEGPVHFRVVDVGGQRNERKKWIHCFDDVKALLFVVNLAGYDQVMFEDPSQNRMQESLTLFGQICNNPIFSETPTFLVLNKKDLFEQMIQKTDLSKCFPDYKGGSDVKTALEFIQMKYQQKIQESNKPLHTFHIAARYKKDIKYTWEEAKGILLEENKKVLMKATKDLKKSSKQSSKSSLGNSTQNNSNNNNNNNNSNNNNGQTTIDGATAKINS

[10] = molecular target: T10, Gγ-YFP (D. discoideum) (UniProt Q95ZG8); experiment: as above
T10 sequence: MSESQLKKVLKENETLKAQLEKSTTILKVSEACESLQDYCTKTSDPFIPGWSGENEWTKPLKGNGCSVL

Measured: binding

B1: endogenous DdRACK1 (protein, UniProt P46800 1-329)
chain: MEQQKAPQVTYLEVGSLVGHNGFVTSIAVSPENPDTIISSSRDKTVMVWQLTPTDATSPGKAHRSLKGHSHFVQDVVISHDGQFALSGSWDNTLRLWDITKGVSTRLFKGHTQDVMSVAFSSDNRQIISGSRDATIKVWNTLGECKFTLEGPEAHQDWVSCIRFSPNTPTIVSGSWDNKVKIWDIKSFKCNHTLTDHTGYVNTVTISPDGSLCASGGKDTFACLWELSSGKPLYKLEARNTINALAFSPNKYWLSAATDDKIIIWDLLTKQVLAEIVPEVKEQAFDSKKKKESKPKAPACLSLAWSADGSVLYAGYNDGLIRVYKSSSQ
binds: [1] | [2] | [3] | [4] | [5] | [6] | [7] | [8] | [9] | [10]
